# In article PMC4336329 (PLoS ONE, 2015):
# In all, about 310,000 compounds went through this assay and about 2,200 (0.71%) showed an effect of 50% or more. The effect is printed as a negative number. The list shows a part of the results.
# Molecular target: human ether-à-go-go-related gene (hERG) potassium channel (human, UniProt Q12809)
# Experiment: primary screen, population patch clamp on CHO cells stably expressing hERG
# Sequence of human ether-à-go-go-related gene (hERG) potassium channel (Q12809 whole entry, looked up): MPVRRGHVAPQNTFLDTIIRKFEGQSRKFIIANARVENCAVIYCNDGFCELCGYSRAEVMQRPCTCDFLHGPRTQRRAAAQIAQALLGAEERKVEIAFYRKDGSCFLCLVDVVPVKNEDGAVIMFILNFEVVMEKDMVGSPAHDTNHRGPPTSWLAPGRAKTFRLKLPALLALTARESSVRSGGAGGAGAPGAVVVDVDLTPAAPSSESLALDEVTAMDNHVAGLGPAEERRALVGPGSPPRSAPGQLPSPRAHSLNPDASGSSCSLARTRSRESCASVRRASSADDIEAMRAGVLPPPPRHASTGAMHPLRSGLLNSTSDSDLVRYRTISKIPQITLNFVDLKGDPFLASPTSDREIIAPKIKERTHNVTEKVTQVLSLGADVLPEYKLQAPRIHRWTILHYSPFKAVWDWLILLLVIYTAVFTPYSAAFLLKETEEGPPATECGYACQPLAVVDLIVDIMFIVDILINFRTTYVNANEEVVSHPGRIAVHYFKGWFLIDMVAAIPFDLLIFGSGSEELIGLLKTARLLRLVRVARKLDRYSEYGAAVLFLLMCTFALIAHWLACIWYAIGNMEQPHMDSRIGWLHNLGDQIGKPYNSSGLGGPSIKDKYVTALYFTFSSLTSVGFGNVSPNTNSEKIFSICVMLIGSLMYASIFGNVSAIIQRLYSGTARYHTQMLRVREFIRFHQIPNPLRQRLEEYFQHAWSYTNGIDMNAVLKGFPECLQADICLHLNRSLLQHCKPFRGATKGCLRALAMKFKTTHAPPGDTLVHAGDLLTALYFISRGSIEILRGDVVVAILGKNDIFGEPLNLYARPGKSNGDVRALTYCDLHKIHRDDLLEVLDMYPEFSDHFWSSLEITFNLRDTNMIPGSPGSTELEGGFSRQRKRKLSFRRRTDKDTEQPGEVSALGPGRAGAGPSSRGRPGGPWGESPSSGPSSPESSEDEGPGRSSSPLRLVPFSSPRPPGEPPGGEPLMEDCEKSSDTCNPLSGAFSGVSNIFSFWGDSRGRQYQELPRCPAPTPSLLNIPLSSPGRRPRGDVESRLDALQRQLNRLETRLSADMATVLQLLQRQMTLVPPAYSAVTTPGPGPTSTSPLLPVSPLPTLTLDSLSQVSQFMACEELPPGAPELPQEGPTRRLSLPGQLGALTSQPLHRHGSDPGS
row,SMILES,"hERG current change (%, negative = inhibition) at 1uM"
1,Cc1ccc(/C=N/NC(=O)CSc2nc3ccccc3[nH]2)o1,13.6%
2,CC(NC(=S)Nc1ccc(F)cc1)C(c1cccs1)N1CCOCC1 (centres unmarked),4.9%
3,O=C(NC(=S)NNC(=O)c1ccccc1O)c1cccnc1,7.51%
4,O=C(NC1CCSc2ccccc21)c1cccc([N+](=O)[O-])c1 (centres unmarked),-3.7%
5,Cc1ccnn1CC(=O)N/N=C/c1ccco1,-3.49%
6,COc1ccccc1OCCCOc1c(Cl)cc(C)cc1Cl,13.6%
7,O=C(O)CN1C(=O)/C(=C\c2cccc(OCc3ccc(Cl)cc3)c2)SC1=S,15.8%
8,Cc1cccc(NC2=NCC(=O)N2Cc2cccs2)c1.Cl,7.45%
9,O=c1c2ccccc2cnn1CCOc1ccccc1,9.47%
10,Cc1ccc(CS(=O)(=O)c2ncc(Cl)c(C(=O)Nc3ccc(OC(F)F)cc3)n2)cc1,5.25%
11,COc1ccc(N2CCN(CC(O)COC(c3ccccc3)c3ccccc3)CC2)cc1 (centres unmarked),-14.2%
12,CCn1c(SCC(=O)NNC(=O)Cc2ccccc2)nnc1-c1ccccc1,-14.4%
13,C=C(C)CN(CC)C(=O)CC1C(=O)NCCN1C (centres unmarked),13.7%
14,CC(=O)Nc1ccc(NC(=O)c2c([N+](=O)[O-])c(C(C)(C)C)nn2C)cc1,-3.29%
15,CC(=O)NC(CC(=O)O)c1ccc(F)cc1 (centres unmarked),8.16%
16,COc1ccc(Cl)cc1S(=O)(=O)N1CCC(C(=O)NC2CC2)CC1,10.3%
17,COc1ccc(S(=O)(=O)N2CCC(NC(=O)c3ccccc3)CC2)cc1,13.6%
18,COc1cc(C(=O)NCC(=O)N/N=C/c2c(C)[nH]c3ccccc23)cc(OC)c1OC,10.2%
19,COC(=O)c1cccc(NC(=S)NCCC2=CCCCC2)c1,15%

row,SMILES,"hERG current change (%, negative = inhibition) at 1uM"
1,CN(CCc1ccccn1)Cc1ccc(Cl)cc1Cl,-54.1%
2,COc1ccc(/C=N/N2CCN(C3c4ccccc4-c4ccccc43)CC2)cc1O,6.65%
3,Cc1ccc(C)c(S(=O)(=O)NCc2ccc(C(=O)N3CCOCC3)cc2)c1,-1.98%
4,Cc1ccc(C)c(N2CCN(c3cnn(-c4nc5ccccc5s4)c(=O)c3Cl)CC2)c1,6.23%
5,CC(C)Oc1ccc(OCCNC2CCCC2)cc1,6.21%
6,COc1ccc(NC(=O)N2CCNC(=O)C2CC(=O)Nc2ccc(F)cc2)cc1 (centres unmarked),9.9%
7,O=S(=O)(c1ccc(F)cc1)n1ccc(-c2cccc(OCc3c(F)cccc3Cl)c2)n1,3.43%
8,Cc1[nH]c2ccccc2c1C(=O)CSC(=S)N(C)C,18.4%
9,C/C(=N\OCC(=O)OCC(=O)NCc1ccccc1)c1ccc2c(c1)OCO2,3.38%
10,Cc1ccc2nc(NC(=O)c3ccc(S(=O)(=O)N4CCCc5ccccc54)cc3)sc2c1,3.64%
11,O=C(COc1ccc2ccccc2c1)NNC(=O)c1ccc([N+](=O)[O-])cc1,1.81%
12,O=C(NNC(=O)c1ccc2ccccc2c1O)NC1CCCCC1,17.9%
13,CC(C)N(C(=O)CSc1ccc(S(=O)(=O)N2CCCCC2)cn1)c1ccccc1,8.32%
14,O=C(CCc1nc(-c2ccccc2)c(-c2ccccc2)o1)OCc1ccc(Br)cc1,13%
15,O=C(NCc1cccnc1)C1CC(=O)N(c2ccc(F)cc2)C1 (centres unmarked),3.05%
16,CN(Cc1ccc(F)cc1)C(=O)c1cccc(OCc2ccccc2)c1,5.67%
17,COc1cc(/C=C/C(=O)NCCc2ccc(S(N)(=O)=O)cc2)ccc1OCC#N,9.48%
18,Cc1oc(C(=O)O)cc1COc1ccc2c3c(c(=O)oc2c1C)CCC3,8.04%
19,Cn1ccnc1SC(=O)N1c2ccccc2Sc2ccccc21,3.58%

row,SMILES,"hERG current change (%, negative = inhibition) at 1uM"
1,Cc1ccc(NC(=O)CCCCCCCCCCC2COCCO2)c(C)c1 (centres unmarked),12.3%
2,Cn1cnnc1Sc1ccc(/C=C/C(=O)c2ccc(O)cc2)cc1[N+](=O)[O-],7.42%
3,COc1ccc(-c2cc(=O)[nH]c(=O)[nH]2)cc1,0.268%
4,COc1ccc([N+](=O)[O-])cc1N(CC(=O)Nc1ccccc1C(=O)N1CCCC1)S(C)(=O)=O,-0.636%
5,O=C1c2ccccc2C(Nc2ccc(Cl)cn2)N1c1ccccn1 (centres unmarked),5.31%
6,O=C(CSc1nnc(-c2cccnc2)n1Cc1ccccc1)NCc1ccccc1,12.8%
7,CCc1ccc(NC(=O)C(=O)NNC(=O)c2cccs2)cc1,0.894%
8,CCN(CC(=O)Nc1ccc(NC(C)=O)cc1)CC(=O)Nc1cccc(Cl)c1,3.34%
9,CC1CCN(S(=O)(=O)c2ccc3c(c2)N(CC(=O)NCCCN2CCCCC2C)C(=O)CS3)CC1 (centres unmarked),7.17%
10,CC(=O)N1CC(=O)N=C1SCC(=O)Nc1nc(-c2ccccc2)c(-c2ccccc2)s1,2.78%
11,C/C(=C1/SC(N2CCCC2)=NC1=O)c1ccc(Br)cc1,-21.4%
12,CCc1c(C)[nH]c(=S)c(C#N)c1C,9.94%
13,O=C(COc1ccc(Cl)cc1)NNC(=O)c1ccncc1,1.14%
14,O=C(OCc1cccc(F)c1)c1ccc2c(c1)-c1ccccc1C2=O,-3.64%
15,O=C(OC(C(=O)NCc1ccco1)c1ccc(Cl)cc1)c1cccs1 (centres unmarked),8.46%
16,COC(=O)c1nn(-c2ccccc2)nc1-c1nn(-c2ccccc2)nc1C(=O)OC.Cl,9.09%
17,O=C(Nc1ccc(S(=O)(=O)Nc2ncccn2)cc1)c1ccc(Cl)c([N+](=O)[O-])c1,10.9%
18,CC(C)Cc1ccc(CN2CCCC(NC(=O)c3cccc(-n4cnnc4)c3)C2)cc1 (centres unmarked),-49.7%
